{"source": "PubChem BioAssay AID463173", "about": "(ICCB-Longwood Screening Facility, Harvard Medical School, 2010)", "note": "In all, about 52,000 compounds went through this assay and about 1,700 (3.3%) were called active. No stated cut-off is given here; in the data, active means survival mostly below about 52% (no sharp cut-off); inactive means mostly above about 56%. The list shows a part of the results.", "data": [{"test_system": "Wild type", "assay": "S. aureus survival, RN4220 and DeltatarO strains – OD600, teichoic acid synthesis inhibitors, primary screen (AID 463173)", "details": "S. aureus RN4220 wild type/DeltatarO growth, OD600, 18 h, stronger effect = lower value, screened at 18.75 µg/mL (by protocol)", "values": [{"smiles": "O=C(CSCc1cnn(-c2ccccc2)c1-n1cccc1)NCc1ccc(Cl)cc1", "survival": "inactive: 88%"}, {"smiles": "O=C(Nc1ccc(O)c(-c2nc3ccccc3o2)c1)c1sc2ccccc2c1Cl", "survival": "inactive: 121%"}, {"smiles": "CCCC(=O)c1cc2c(cc1N)OCCO2", "survival": "inactive: 95%"}, {"smiles": "COc1ccccc1N1CCN(C(=O)c2cn(CC(C)C)c(=O)c3c2c2ccccc2n3C)CC1", "survival": "inactive: 87%"}, {"smiles": "CCOc1ccccc1C(=O)NC1(C(F)(F)F)NC(=O)N(CCc2ccc(OC)c(OC)c2)C1=O", "note": "(configuration not stated)", "survival": "inactive: 77%"}, {"smiles": "COc1cc(OC)cc(-c2cc3nc(C)c(CCC(=O)NCc4ccccc4)c(C)n3n2)c1", "survival": "inactive: 89%"}, {"smiles": "Cc1nc2ccn(Cc3ccccc3)c(=O)c2cc1C(=O)N1CCN(c2ccccc2F)CC1", "survival": "inactive: 80%"}, {"smiles": "Cc1cccc(C2C=C(c3ccc(C)c(C)c3)Nc3nnnn32)c1", "note": "(configuration not stated)", "survival": "active: 1%"}, {"smiles": "Cc1cc(F)ccc1S(=O)(=O)Nc1ccc2oc3c(c2c1)CC(C)CC3", "note": "(configuration not stated)", "survival": "active: -6%"}, {"smiles": "Cc1cc2ncn(S(=O)(=O)N3CCOCC3)c2cc1C", "survival": "inactive: 101%"}, {"smiles": "CC(C)c1ccc(NC(=O)c2ccc3c(c2)CCN3S(=O)(=O)c2ccccc2)cc1", "survival": "inactive: 82%"}, {"smiles": "CCN(CC)c1nc2n(c(=S)n1)CCS2", "survival": "inactive: 101%"}, {"smiles": "O=C(Nc1nnc(S(=O)(=O)N2CCCc3ccccc32)s1)c1ccccc1Cl", "survival": "inactive: 33%"}, {"smiles": "Cc1ccc(-n2nc(CO)c(C(=O)NC(C)CCCc3ccccc3)n2)cc1", "note": "(configuration not stated)", "survival": "inactive: 96%"}, {"smiles": "CC(C)CC(NS(=O)(=O)c1ccc2c(c1)oc(=O)n2C)C(=O)NCc1ccccc1Cl", "note": "(configuration not stated)", "survival": "inactive: 88%"}, {"smiles": "CCCn1c(=O)sc2cc(NC(=O)c3ccc(OC)c(Br)c3)ccc21", "survival": "inactive: 79%"}, {"smiles": "CCCOc1ccc(CN(C(=O)Cc2coc3ccc(CC)cc23)C2CCS(=O)(=O)C2)cc1", "note": "(configuration not stated)", "survival": "inactive: 80%"}, {"smiles": "COc1ccc(NC(=O)c2c(NCc3sccc3C)sc3c2CCCC3)c(OC)c1", "survival": "inactive: 83%"}, {"smiles": "CCc1nn2c(=O)cc(COC(=O)CNC(=O)COc3ccc(C)cc3)nc2s1", "survival": "inactive: 135%"}, {"smiles": "CCC(=O)N1CCc2cc(S(=O)(=O)CCC(=O)N3CCN(c4ccc(Cl)cc4)CC3)ccc21", "survival": "inactive: 64%"}, {"smiles": "Cc1ccc(NC(=O)CN2CCN(S(=O)(=O)c3ccc(C(C)C)cc3)CC2)cc1F", "survival": "inactive: 53%"}, {"smiles": "OC1(c2cccc(C(F)(F)F)c2)CCN(c2ccc(-c3ccccc3)nn2)CC1", "survival": "inactive: 106%"}, {"smiles": "O=C1S/C(=C\\c2ccccc2)C(=O)N1CN1CCOCC1", "survival": "inactive: 125%"}, {"smiles": "Cc1cn(C)c(CC(=O)N2CCN(c3cccc(Cl)c3)CC2)c1C(=O)O", "survival": "inactive: 78%"}, {"smiles": "COc1ccc(Nc2nc(N)nc(N)c2S(=O)(=O)c2ccccc2)cc1", "survival": "inactive: 79%"}, {"smiles": "O=c1c2ccccc2n(Cc2ccccc2Cl)c(=O)n1CCc1ccccc1", "survival": "active: 15%"}, {"smiles": "CCCN(CCC)C(=O)Cn1c(=O)n(-c2ccc(CC)cc2)c(=O)c2ccc(C(=O)NCCc3ccccc3)cc21", "survival": "inactive: 81%"}, {"smiles": "CCOC(=O)c1ccc(Nc2nc3ccc(C(=O)c4ccccc4)cc3n3c(C)nnc23)cc1", "survival": "inactive: 120%"}, {"smiles": "COc1cccc(NC(=O)CSC2=Nc3ccccc3C3=NC(CCC(=O)NCCc4ccccc4)C(=O)N23)c1", "note": "(configuration not stated)", "survival": "inactive: 49%"}, {"smiles": "Cc1ccc(-n2cc(C(=O)Oc3cccc(C)c3)c3ccccc3c2=O)cc1", "survival": "inactive: 97%"}, {"smiles": "Cc1cccc(NC(=O)c2ccc3nc(C(C)C)oc3c2)c1C", "survival": "inactive: 128%"}, {"smiles": "CCCCCOc1ccc(Cn2c(=O)oc3ccccc32)cc1", "survival": "inactive: 120%"}, {"smiles": "COc1cc(Cl)c(NC(=O)CCS(=O)(=O)c2ccc3c(c2)NC(=O)CO3)c(OC)c1", "survival": "inactive: 57%"}, {"smiles": "O=C1CC(C(=O)Nc2ccccc2)C2(CCCC2)O1", "note": "(configuration not stated)", "survival": "inactive: 98%"}, {"smiles": "Cc1ccc(NC(=O)C2CCCN(S(=O)(=O)c3ccc4c(c3)oc(=O)n4C)C2)cc1Cl", "note": "(configuration not stated)", "survival": "inactive: 90%"}, {"smiles": "CCOc1ccc(NC(=O)C(=O)c2cc(C)n(-c3cc(C)cc(C)c3)c2C)cc1", "survival": "inactive: 127%"}, {"smiles": "COc1ccc(-c2cc(C(=O)NCCc3ccccc3)c3c(-c4ccccc4)[nH]nc3n2)cc1OC", "survival": "inactive: 153%"}, {"smiles": "Cc1cc(C)nc(NNC(=O)c2ccccc2)n1", "survival": "inactive: 98%"}, {"smiles": "COc1ccc(CCNC(=O)c2ccc3c(c2)CCN3S(=O)(=O)c2ccc(C)cc2)cc1", "survival": "inactive: 89%"}, {"smiles": "CC(C)(C)c1ccc(-c2ncccc2O)cc1", "survival": "inactive: 106%"}, {"smiles": "CC(C)(C)OC(=O)N1CCC(c2c(C(=O)NC3CCN(Cc4ccccc4)CC3)cnn2-c2ccc(F)cc2F)CC1", "survival": "active: -4%"}, {"smiles": "COc1ccccc1CCNC(=O)C(=O)NCC(c1cccs1)S(=O)(=O)c1cccs1", "note": "(configuration not stated)", "survival": "inactive: 73%"}, {"smiles": "COC(=O)CNc1cn[nH]c(=O)n1", "survival": "inactive: 96%"}, {"smiles": "Cc1ccc(/C=C/c2onc(C)c2S(=O)(=O)N2CCC(C(=O)Nc3cc(C)ccc3C)CC2)cc1", "survival": "inactive: 68%"}, {"smiles": "CC(C)(C)C(=O)NC1CCNCC1", "survival": "inactive: 114%"}, {"smiles": "O=C1C2CCCC1C(c1ccc3c(c1)OCO3)NC2c1ccc2c(c1)OCO2", "note": "(configuration not stated)", "survival": "inactive: 106%"}, {"smiles": "CCOc1ccc(S(=O)(=O)Nc2cccc(-c3ccc(OCC)nn3)c2)cc1", "survival": "inactive: 71%"}, {"smiles": "Cc1cccc(NC(=O)c2c(C)cc(C)nc2SCC(=O)c2ccccc2)c1", "survival": "inactive: 73%"}, {"smiles": "Cc1cc(C)c2oc(C(=O)Nc3ccc(S(=O)(=O)N4CCCCCC4)cc3)cc(=O)c2c1", "survival": "inactive: 72%"}, {"smiles": "COc1ccc(S(=O)(=O)c2cn(C)c3ccc(C)cc3c2=O)cc1", "survival": "inactive: 82%"}, {"smiles": "O=C(Nc1ccc(F)cc1C(F)(F)F)C1CCN(c2ncccn2)CC1", "survival": "inactive: 87%"}, {"smiles": "Cc1cccc(NC(=O)COC(=O)CCCC2=NS(=O)(=O)c3ccccc3N2)c1", "survival": "active: -4%"}, {"smiles": "O=C(Nc1ccc(S(=O)(=O)N2CCCCC2c2cccnc2)cc1)c1ccc(Br)cc1", "note": "(configuration not stated)", "survival": "inactive: 73%"}, {"smiles": "CCC1=Nc2cc(C(=O)NC3CCC(C)CC3)ccc2Sc2ccc(C)cc21", "note": "(configuration not stated)", "survival": "inactive: 29%"}, {"smiles": "CCC1CN(C(=O)N2CCC(C(=O)NCc3cccc(OC)c3OC)CC2)c2cc(C)ccc2O1", "note": "(configuration not stated)", "survival": "inactive: 106%"}, {"smiles": "CCOc1ccc(OCC)c(Nc2ccc3cc(S(=O)(=O)N4CCCC4)ccc3n2)c1", "survival": "inactive: 72%"}, {"smiles": "O=C(C1CCCN(S(=O)(=O)c2cccc3nsnc23)C1)N1CCN(c2ccccc2F)CC1", "note": "(configuration not stated)", "survival": "inactive: 68%"}]}]}
